Reference: PubChem BioAssay (NCATS)
Values joined by “and” are separate entries in the source; they are usually repeats but may differ in a detail not shown here. Identical values can stand only once. The inconclusive results got no clear call from the source; some entries with a clear call stand among them for comparison. A potency beside an inconclusive call is a rough fit, not a confirmed value. Active and inactive are the calls of the source. Calls come from the whole dose curve; as a rule, active = well fitted curve in the direction sought with a large enough effect; inconclusive = small, poorly fitted or top-dose-only effect, or another doubt; inactive = no such curve, though single readings can be large; an effect the other way counts as inactive or inconclusive.

What was measured:
[1] = qHTS Screen of the MIPE 4.0 Collection Against Ewings Sarcoma (RDES) (AID 1259252); details: RD-ES Ewing sarcoma viability, CellTiter-Glo, 48 h; series mostly up to 45.8 µM; note: nearly all actives have a fitted effect of over 35% in size; note: potency is the fitted concentration of half-maximal effect;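 for viability (percent of control): 100% = DMSO-treated cells and 0% = medium-only wells without cells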
Outline: (§1)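 Here, cells in 5% FBS RPMI were exposed for two days (48 h) to compound dilutions added four hours after plating. ATP-based CellTiter-Glo luminescence measured viability, normalized to vehicle and no-cell blanks.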

[2] = qHTS Screen of the MIPE 4.0 Collection Against Ewings Sarcoma (TC71) (AID 1259253); details: TC71 Ewing sarcoma viability, CellTiter-Glo, 48 h; series mostly up to 45.8 µM; note: nearly all actives have a fitted effect of over 40% in size; note: potency is the fitted concentration of half-maximal effect
Outline: as §1

[3] = qHTS Screen of the MIPE 4.0 Collection Against Ewings Sarcoma (TC32) (AID 1259256); details: TC32 Ewing sarcoma viability, CellTiter-Glo, 48 h; series mostly up to 45.8 µM; note: nearly all actives have a fitted effect of over 45% in size; note: potency is the fitted concentration of half-maximal effect;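 for viability (percent of control): 100% = DMSO-treated cells and 0% = medium-only wells without cells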
Outline: as §1

[4] = qHTS assay to identify small molecule inhibitors of chordoma cells - UCH-1 (AID 1259355); details: UCH-1 chordoma viability, CellTiter-Glo, 48 h, combination, with auranofin plus four topoisomerase inhibitors; series mostly up to 46.1 µM; note: nearly all actives have a fitted effect of over 55% in size; note: potency is the fitted concentration of half-maximal effect
Outline: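 Luminescent ATP read-out (CellTiter-Glo, 30min at room temperature) measured viability of UCH-1 cells exposed for 48hr to test drugs at 15 concentrations, co-dosed with a five-agent combination of auranofin, camptothecin, doxorubicin, rubitecan and topotecan.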

[5] = P-glycoprotein substrates identified in KB-8-5-11 adenocarcinoma cell line, qHTS therapeutic library screen (AID 1346987); details: KB-8-5-11 (P-gp overexpressing) viability, CellTiter-Glo, 72 h; series mostly up to 44.5 µM; note: nearly all actives have a fitted effect of over 65% in size; note: potency is the fitted concentration of half-maximal effect
Outline: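 P-gp-mediated resistance screen: KB-8-5-11 cells treated 72 h with compounds in dose-response. CellTiter-Glo viability.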

[6] = qHTS Assay for Identifying Gametocytocidal Compounds (AID 743244); note: potency is the fitted concentration of half-maximal effect;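 for max response: % is set by controls: 0 for no effect and ±100 for the full control effect; actives lower the fluorescent signal which means gametocytes are killed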; details: P. falciparum 3D7 stage III-V gametocytes, alamarBlue, 72 h; max response: stronger effect = lower value
Outline: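 3D7 gametocytes, stages III–V, 20,000/well; cpd 72 h, 37 °C/5% CO2; + alamarBlue 24 h; fluor. Ex 525/Em 598.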

[7] = Identifying Small Molecule Inhibitors of Pancreatic Cancer Stem Cells (A2780, Spheroid) (AID 1259357); details: Potency: A2780 spheroid viability; viability (percent of control): at 46.1 µM (top of the series);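 note: compound exposure lasted 48 h before the ATP luminescence read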; note: potency is the fitted concentration of half-maximal effect;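 for viability (percent of control): 100% = DMSO treated cells and 0% = wells without cells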
Outline: (§2)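 After a 4 h attachment period, compounds were pinned into wells and cultures held 48 h under standard incubator conditions. Viability was then measured as CellTiter-Glo luminescence following 10 min at room temperature.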

[8] = Identifying Small Molecule Inhibitors of Pancreatic Cancer Stem Cells (SN12C, Spheroid) (AID 1259360); details: Potency: SN12C spheroid viability; series mostly up to 46.1 µM; note: potency is the fitted concentration of half-maximal effect;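 for viability (% of control): 100% = DMSO-treated cells and 0% = wells without cells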
Outline: as §2

[9] = Identifying Small Molecule Inhibitors of Pancreatic Cancer Stem Cells (Panc1, Adherent) (AID 1259362); details: Potency: viability; viability, % of control: at 46.1 µM (top of the series); note: potency is the fitted concentration of half-maximal effect;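 for viability, % of control: compound exposure lasted 48 h before the viability read; plate controls were DMSO-treated cells for no effect and cell-free media wells for full effect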
Outline: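 Pre-formed 14-day tumor spheroids or adherent cells dosed and incubated 48 h, 37C, 5% CO2. Viability assessed by CellTiter-Glo.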

[10] = Identifying Small Molecule Inhibitors of Pancreatic Cancer Stem Cells (Panc1, Spheroid) (AID 1259359); details: Panc1 spheroid cancer stem cell viability; viability, % of control: at 46.1 µM (top of the series);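 note: potency is the fitted concentration of half-maximal effect; compound exposure lasted 48 h before reading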
Outline: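 Cytotoxicity read by CellTiter-Glo luminescence after 48 h compound exposure at 37C; percent activity scaled between DMSO-treated cells and cell-free wells. Spheroid formats used cells pre-formed 14 days in stem cell media on hydrogel.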

[11] = Identifying Small Molecule Inhibitors of Pancreatic Cancer Stem Cells (A278, Adherent) (AID 1259361); details: viability (% of control): at 46.1 µM (top of the series); note: nearly all actives have a fitted effect of over 35% in size
Outline: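 Luminescent ATP readout (CellTiter-Glo) quantifies surviving cells after a 48 h drug incubation. Normalization uses DMSO wells as no inhibition and media-only wells as full inhibition; bortezomib served as positive control.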

[12] = qHTS assay to identify small molecule inhibitors of chordoma cells - UCH-2 (AID 1259356); details: UCH-2 chordoma viability, CellTiter-Glo ATP luminescence, 48 h; note: potency is the fitted concentration of half-maximal effect
[13] = P-glycoprotein substrates identified in KB-3-1 adenocarcinoma cell line, qHTS therapeutic library screen (AID 1346986); details: KB-3-1 parental cells viability, CellTiter-Glo, 72 h; series mostly up to 44.5 µM;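 note: potency is the fitted concentration of half-maximal effect; potency is for cytotoxicity meaning loss of cell viability; nearly all actives have a fitted effect of over 60% in size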
Outline: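 KB-3-1 parental cells and P-gp-overexpressing KB-8-5-11 (colchicine omitted during assay) plated at 500 cells/well, dosed in dose-response, incubated 72 h at 37 degree C. CellTiter-Glo luminescence read; KB-8-5-11 also tested with tariquidar.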
Tags give direction and shape of the fitted curve.

Cc1ncc([N+](=O)[O-])n1CC(C)O (configuration not stated)
Potency [1]: inconclusive: 23.5 µM [inhibitor, single point]
Potency [2]: inconclusive: 37.2 µM [inhibitor, single point]
Potency [3]: inconclusive: 37.2 µM [inhibitor, single point]
Potency [4]: inactive
Potency [5]: inactive

NS(=O)(=O)c1cc2c(cc1Cl)NCNS2(=O)=O
max response [6]: inactive: 6.34% and inactive: 16.2%
Potency [1]: inactive
Potency [2]: inactive
Potency [3]: inactive
Potency [4]: inconclusive: 1.41 µM [cytotoxic, partial curve, poor fit]

COc1cc([C@@H]2c3cc4c(cc3[C@H](O)[C@H]3COC(=O)[C@H]23)OCO4)cc(OC)c1OC
Potency [1]: inactive
Potency [2]: inactive
Potency [3]: inconclusive: 0.0042 µM [inhibitor, full curve]
Potency [4]: active: 0.0079 µM
Potency [7]: inconclusive: 0.0132 µM [cytotoxic, full curve, poor fit]
Potency [8]: inconclusive: 0.296 µM [cytotoxic, partial curve, poor fit]
Potency [9]: inconclusive: 0.0053 µM [cytotoxic, full curve]

CC(C)(C)c1cc(C(=O)O)c(NC(=O)Nc2ccc3[nH]ncc3c2)s1
Potency [1]: inconclusive: 18.7 µM [inhibitor, partial curve, poor fit]
Potency [2]: inconclusive: 13.2 µM [inhibitor, partial curve, poor fit]
Potency [3]: inconclusive: 2.64 µM [inhibitor, full curve, poor fit]
Potency [7]: inactive
Potency [8]: inactive
Potency [9]: inconclusive: 37.2 µM [cytotoxic, single point]

Nc1cc(C(Cl)=C(Cl)Cl)c(S(N)(=O)=O)cc1S(N)(=O)=O
Potency [1]: inconclusive: 23.5 µM [inhibitor, single point]
Potency [2]: inconclusive: 23.5 µM [inhibitor, single point]
Potency [3]: inactive
Potency [5]: inactive

Cc1ccc2c(c1)C(=O)[C@]1(O)CCN(c3ccccc3)C1=N2
Potency [1]: inconclusive: 18.7 µM [inhibitor, partial curve]
Potency [2]: active: 18.7 µM
Potency [3]: inactive
Potency [5]: inconclusive: 20.9 µM [inhibitor, partial curve] and inconclusive: 25.9 µM [inhibitor, single point]

CC[C@H](NC(=O)[C@H](C)NC)C(=O)N1C[C@@H](O)C[C@H]1Cc1c(-c2[nH]c3cc(F)ccc3c2C[C@H]2C[C@H](O)CN2C(=O)[C@H](CC)NC(=O)[C@H](C)NC)[nH]c2cc(F)ccc12
Potency [1]: inactive
Potency [2]: inactive
Potency [3]: inconclusive: 23.5 µM [inhibitor, partial curve, poor fit]

OC(c1cc(C(F)(F)F)nc2c(C(F)(F)F)cccc12)C1CCCCN1 (configuration not stated)
Potency [1]: inconclusive: 33.2 µM [inhibitor, single point]
Potency [2]: active: 20.9 µM
Potency [3]: active: 26.4 µM
Potency [5]: inconclusive: 29.6 µM [inhibitor, single point]

Cn1c(=O)c(F)c(Nc2ccc(I)cc2F)c2c(=O)n(C[C@@H](O)CO)cnc21
Potency [1]: inconclusive: 37.2 µM [inhibitor, single point]
Potency [2]: inactive
Potency [7]: inconclusive: 11.8 µM [cytotoxic, partial curve, poor fit]
Potency [10]: inconclusive: 0.833 µM [cytotoxic, full curve, poor fit]
Potency [8]: active: 8.33 µM
IC50 (viability decrease) [11]: inconclusive: 0.0833 µM [cytotoxic, full curve]
viability, % of control [9]: inconclusive: 95.9%

NC(=O)c1ccc(I)c([N+](=O)[O-])c1
Potency [6]: inconclusive: 37.2 µM [inhibitor, single point]
Potency [1]: inactive
Potency [2]: inactive
Potency [7]: inconclusive: 11.8 µM [cytotoxic, partial curve, poor fit]
Potency [10]: inconclusive: 0.59 µM [rising, partial curve, poor fit]
Potency [8]: inactive
Potency [9]: inconclusive: 0.0012 µM [rising, full curve, poor fit]
Potency [5]: inactive

COc1cc2nccc(Oc3ccc(NC(=O)Nc4ccc(F)cc4F)c(F)c3)c2cc1OC
Potency [1]: active: 14.8 µM
Potency [2]: inconclusive: 20.9 µM [inhibitor, partial curve]
Potency [3]: active: 6.62 µM
Potency [5]: inconclusive: 18.7 µM [inhibitor, partial curve] and active: 7.31 µM

CNc1nc(Nc2ccc(C(=O)N3CCOCC3)cc2OC)ncc1Cl
Potency [1]: inactive
Potency [2]: inconclusive: 5.9 µM [inhibitor, partial curve, poor fit]
Potency [3]: inconclusive: 7.43 µM [inhibitor, partial curve, poor fit]
Potency [5]: inconclusive: 20.6 µM [inhibitor, partial curve]

NC1=N[C@@]2(c3cc(NC(=O)c4ccc(F)cn4)ccc3F)COC[C@@H]2CS1
Potency [1]: inconclusive: 33.2 µM [inhibitor, partial curve, poor fit]
Potency [2]: inconclusive: 29.6 µM [inhibitor, single point]
Potency [3]: inactive

Cc1nc(Nc2ncc(C(=O)Nc3c(C)cccc3Cl)s2)cc(N2CCN(CCO)CC2)n1
Potency [6]: inconclusive: 74.3 µM [inhibitor, single point] and inconclusive: 22.4 µM [inhibitor, partial curve]
Potency [1]: inconclusive: 0.0526 µM [inhibitor, full curve]
Potency [2]: inconclusive: 26.4 µM [inhibitor, single point]
Potency [3]: inconclusive: 16.6 µM [inhibitor, partial curve, poor fit]
Potency [4]: inconclusive: 10 µM [cytotoxic, partial curve, poor fit]
Potency [12]: inconclusive: 11.6 µM [cytotoxic, partial curve, poor fit]
Potency [7]: inconclusive: 0.0019 µM [rising, full curve, poor fit]
Potency [8]: inconclusive: 29.6 µM [cytotoxic, single point]
Potency [9]: active: 20.9 µM
Potency [13]: inconclusive: 18.4 µM [inhibitor, single point]
Potency [5]: inactive

CC[C@H]1OC(=O)[C@H](C)[C@@H](O[C@H]2C[C@@](C)(OC)[C@@H](O)[C@H](C)O2)[C@H](C)[C@@H](O[C@@H]2O[C@H](C)C[C@H](N(C)C)[C@@H]2O)[C@](C)(O)C[C@@H](C)CN(C)[C@H](C)[C@@H](O)[C@]1(C)O
Potency [1]: inconclusive: 8.33 µM [inhibitor, partial curve, poor fit]
Potency [2]: inconclusive: 14.8 µM [inhibitor, partial curve, poor fit]
Potency [3]: active: 13.2 µM

c1ccc2c(-c3cnn4cc(-c5ccc(N6CCNCC6)cc5)cnc34)ccnc2c1
Potency [6]: active: 3.72 µM
Potency [1]: inconclusive: 23.5 µM [inhibitor, partial curve, poor fit]
Potency [2]: inconclusive: 26.4 µM [inhibitor, partial curve, poor fit]
Potency [3]: inactive
Potency [7]: inconclusive: 26.4 µM [cytotoxic, single point]
Potency [10]: active: 26.4 µM
Potency [8]: inconclusive: 26.4 µM [cytotoxic, single point]
Potency [9]: active: 20.9 µM
Potency [5]: inconclusive: 2.96 µM [inhibitor, full curve, poor fit]

Cc1cc(C2CCCCC2)n(O)c(=O)c1
Potency [6]: inconclusive: 1.26 µM [inhibitor, partial curve, poor fit]
Potency [1]: inconclusive: 1.18 µM [inhibitor, full curve]
Potency [2]: active: 5.26 µM
Potency [12]: inconclusive: 1.11 µM [cytotoxic, full curve, poor fit]
Potency [5]: active: 5.8 µM and inconclusive: 1.57 µM [inhibitor, partial curve, poor fit] and inconclusive: 5.26 µM [inhibitor, full curve]

CN(CCOc1ccc(CC2SC(=O)NC2=O)cc1)c1ccccn1 (configuration not stated)
Potency [1]: active: 6.62 µM
Potency [2]: active: 10.5 µM
Potency [3]: inactive
Potency [4]: inactive
Potency [5]: inconclusive: 13 µM [inhibitor, partial curve, poor fit]

CC(C)C1CCC(C(=O)N[C@H](Cc2ccccc2)C(=O)O)CC1 (some centres not stated)
max response [6]: inactive: 6.84%
Potency [1]: inactive
Potency [2]: inactive
Potency [3]: inactive
Potency [5]: inactive

O=C1Nc2ccc(Cl)cc2C(C#CC2CC2)(C(F)(F)F)O1 (configuration not stated)
Potency [1]: inconclusive: 26.4 µM [inhibitor, single point]
Potency [2]: inconclusive: 23.5 µM [inhibitor, partial curve]
Potency [3]: inconclusive: 23.5 µM [inhibitor, partial curve]
Potency [5]: inconclusive: 37.2 µM [inhibitor, partial curve]

O=C(O)CCn1c2c(c3ccccc31)C[C@H](NS(=O)(=O)c1ccc(F)cc1)CC2
Potency [1]: inactive
Potency [2]: inactive
Potency [3]: inactive
Potency [5]: inactive

CN(C)CCOC(c1ccccc1)c1ccccc1
Potency [6]: inconclusive: 59 µM [inhibitor, single point] and inconclusive: 31.6 µM [inhibitor, single point]
Potency [1]: inconclusive: 37.2 µM [inhibitor, single point]
Potency [2]: inconclusive: 26.4 µM [inhibitor, single point]
Potency [3]: inconclusive: 23.5 µM [inhibitor, partial curve]
Potency [4]: inconclusive: 39.8 µM [cytotoxic, partial curve, poor fit]
Potency [5]: inconclusive: 29.1 µM [inhibitor, single point]

N#Cc1ccc(C(c2ccc(C#N)cc2)n2cncn2)cc1
Potency [1]: inconclusive: 20.9 µM [inhibitor, single point]
Potency [2]: inconclusive: 23.5 µM [inhibitor, single point]
Potency [4]: inconclusive: 0.002 µM [cytotoxic, full curve, poor fit]
Potency [7]: inactive
Potency [8]: inactive
Potency [9]: inconclusive: 0.001 µM
